Some of the results follow. These are further read-outs of the screen, such as a control signal, another cell line or another target. No call is given for them.
Tests used:
Assay in all cases: Primary Screen for Target Class Profiling of Small Molecule Inhibitors of Methyltransferases
[1] = biological target: Glycine N-methyltransferase (Homo sapiens) (UniProt Q14749); settings: purified enzyme, MTase-Glo SAH luminescence; measured here: GNMT inhibition; at 40 µM; stronger effect = lower value
Method in brief: (§1)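 Each enzyme was assayed with SAM and its substrate. SAH formation detected by MTase-Glo luminescence; single-point 40 uM screen[…].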

[2] = biological target: Guanidinoacetate N-methyltransferase (Homo sapiens) (UniProt Q14353); settings: purified enzyme, MTase-Glo SAH luminescence; measured here: GAMT inhibition; at 40 µM; stronger effect = lower value
Method in brief: as §1

[3] = biological target: Histamine N-methyltransferase (Homo sapiens) (UniProt P50135); settings: purified enzyme, MTase-Glo SAH luminescence; measured here: HNMT inhibition; at 40 µM; stronger effect = lower value
Method in brief: as §1

[4] = biological target: Nicotinamide N-methyltransferase (Homo sapiens) (UniProt P40261); settings: purified enzyme, MTase-Glo SAH luminescence; measured here: NNMT inhibition; at 40 µM; stronger effect = lower value
Method in brief: as §1

[5] = biological target: Phenylethanolamine N-methyltransferase (Homo sapiens) (UniProt P11086); settings: purified enzyme, MTase-Glo SAH luminescence; measured here: PNMT inhibition; at 40 µM; stronger effect = lower value
Method in brief: as §1
On the % scale 0 is the no-effect control and ±100 the full control effect.

COc1ccc(N2CC3CCC(C2)N3C(=O)NC(C)C)cc1
activity change, negative = inhibition [1]: -0.923%
activity change, negative = inhibition [2]: -0.074%
activity change, negative = inhibition [3]: 0.446%
activity change, negative = inhibition [4]: 0.479%
activity change, negative = inhibition [5]: -1.81%

CNC(=O)c1cc(C)nc2onc(C3CCN(C(=O)c4ccccc4Cl)C3)c12 (centres undefined)
activity change, negative = inhibition [1]: -6.87%
activity change, negative = inhibition [2]: -3.69%
activity change, negative = inhibition [3]: -1.44%
activity change, negative = inhibition [4]: -13.6%
activity change, negative = inhibition [5]: -5.91%

CC(C)CCN1C(=O)c2ccccc2CC1(C)C(=O)NCc1ccc(Cl)cc1 (centres undefined)
activity change, negative = inhibition [1]: 13.3%
activity change, negative = inhibition [2]: 0%
activity change, negative = inhibition [3]: 10.6%
activity change, negative = inhibition [4]: 3.89%
activity change, negative = inhibition [5]: 5.15%

COc1ccc(-c2cc3n(n2)CC(C)(C(=O)NCc2ccccc2)N(c2ccc(C)cc2C)C3=O)cc1 (centres undefined)
activity change, negative = inhibition [1]: 8.7%
activity change, negative = inhibition [2]: 0%
activity change, negative = inhibition [3]: 9.83%
activity change, negative = inhibition [4]: 10.2%
activity change, negative = inhibition [5]: 2.95%

CCOc1ccc(CN2C(=O)c3cc4ccccc4n3CC2(C)C(=O)NCCC(C)C)cc1OC (centres undefined)
activity change, negative = inhibition [1]: -4.04%
activity change, negative = inhibition [2]: 2.93%
activity change, negative = inhibition [3]: -2.77%
activity change, negative = inhibition [4]: -9.99%
activity change, negative = inhibition [5]: -4.28%

COc1ccc(-c2cc3n(n2)CC(C)(C(=O)NCc2ccccc2)N(c2cccc(C)c2C)C3=O)cc1 (centres undefined)
activity change, negative = inhibition [1]: -0.289%
activity change, negative = inhibition [2]: 3.99%
activity change, negative = inhibition [3]: 2.37%
activity change, negative = inhibition [4]: 4.28%
activity change, negative = inhibition [5]: -2.82%

CC(C)(C)c1cc2n(n1)CC(C)(C(=O)NC1CCCCCC1)N(Cc1ccccc1)C2=O (centres undefined)
activity change, negative = inhibition [1]: 2.98%
activity change, negative = inhibition [2]: 0.391%
activity change, negative = inhibition [3]: 1.82%
activity change, negative = inhibition [4]: -1.47%
activity change, negative = inhibition [5]: -0.061%

O=C(O)Cc1cn(C2OCC(O)C(O)C2O[C@@H]2O[C@H](CO)[C@@H](O)[C@H](O)[C@H]2O)c2ccccc12 (some centres undefined)
activity change, negative = inhibition [1]: 0%
activity change, negative = inhibition [2]: 8.61%
activity change, negative = inhibition [3]: 6.43%
activity change, negative = inhibition [4]: -5.89%
activity change, negative = inhibition [5]: 7.94%

COc1ccccc1CNC(=O)CCCc1nnc2n3nc(-c4ccccc4)nc3c3ccccc3n12
activity change, negative = inhibition [1]: -11.7%
activity change, negative = inhibition [2]: 0%
activity change, negative = inhibition [3]: 1.8%
activity change, negative = inhibition [4]: 3.79%
activity change, negative = inhibition [5]: -4.66%

CCOCC(O)Cn1cnc(-c2ccccc2)c1-c1cccc(OC)c1F (centres undefined)
activity change, negative = inhibition [1]: -3.51%
activity change, negative = inhibition [2]: 2.04%
activity change, negative = inhibition [3]: 1.34%
activity change, negative = inhibition [4]: -8.08%
activity change, negative = inhibition [5]: 1.05%

O=C(NCCN1CCCCC1)c1cc2n(n1)CCCN(Cc1ccc(Cl)cc1)C2=O
activity change, negative = inhibition [1]: -0.066%
activity change, negative = inhibition [2]: 0%
activity change, negative = inhibition [3]: -5.04%
activity change, negative = inhibition [4]: 1.79%
activity change, negative = inhibition [5]: 6.24%

CN(C1CCCCC1)S(=O)(=O)C1CCS(=O)(=O)C1 (centres undefined)
activity change, negative = inhibition [1]: 0.875%
activity change, negative = inhibition [2]: -3.55%
activity change, negative = inhibition [3]: 3.38%
activity change, negative = inhibition [4]: 0.381%
activity change, negative = inhibition [5]: 1.39%

Cn1c(=O)c2ccc(C(=O)NC3CCCC3)cc2n2c(SCC(=O)Nc3cccc(F)c3)nnc12
activity change, negative = inhibition [1]: -1.9%
activity change, negative = inhibition [2]: 0%
activity change, negative = inhibition [3]: 4.14%
activity change, negative = inhibition [4]: -0.307%
activity change, negative = inhibition [5]: 8.05%

CCCn1c(=O)c2ccc(C(=O)NCC(C)C)cc2n2c(=O)n(CC(=O)NC3CCCCC3)nc12
activity change, negative = inhibition [1]: 3.54%
activity change, negative = inhibition [2]: 0.324%
activity change, negative = inhibition [3]: 6.6%
activity change, negative = inhibition [4]: 0.624%
activity change, negative = inhibition [5]: 3.56%

CN[C@H](CC(=O)O)C(=O)O
activity change, negative = inhibition [1]: -1.19%
activity change, negative = inhibition [2]: 6.9%
activity change, negative = inhibition [3]: 0.317%
activity change, negative = inhibition [4]: -5.37%
activity change, negative = inhibition [5]: 4.72%

C[S+](=O)([O-])NCCNC(=O)c1cccc(-c2ccc(C(F)(F)F)cc2)c1
activity change, negative = inhibition [1]: -1.97%
activity change, negative = inhibition [2]: -1.24%
activity change, negative = inhibition [3]: 0.17%
activity change, negative = inhibition [4]: -1.11%
activity change, negative = inhibition [5]: 4.57%

O=C(N[C@@H]1CN(C(=O)c2nccc3ccccc23)C[C@H]1CO)c1ccccc1
activity change, negative = inhibition [1]: -0.131%
activity change, negative = inhibition [2]: 1.5%
activity change, negative = inhibition [3]: 2.94%
activity change, negative = inhibition [4]: -3.53%
activity change, negative = inhibition [5]: -3.77%

CCCn1c(=O)c2cc(F)ccc2n2c(SCc3cccc(F)c3)nnc12
activity change, negative = inhibition [1]: -7.8%
activity change, negative = inhibition [2]: 0.773%
activity change, negative = inhibition [3]: 6.85%
activity change, negative = inhibition [4]: -4.72%
activity change, negative = inhibition [5]: 6.47%

C=C(NC(=O)C(=C)NC(=O)c1csc(C2=NC3c4csc(n4)C4NC(=O)c5csc(n5)C(C(C)(O)C(C)O)NC(=O)C5CSC(=N5)C(=CC)NC(=O)C(C(C)O)NC(=O)c5csc(n5)C3(CC2)NC(=O)C(C)NC(=O)C(=C)NC(=O)C(C)NC(=O)C(C(C)CC)NC2C=Cc3c(C(C)O)cc(nc3C2O)C(=O)OC4C)n1)C(N)=O (centres undefined)
activity change, negative = inhibition [2]: -12.8%
activity change, negative = inhibition [4]: 2.43%
activity change, negative = inhibition [5]: 8.6%

NC(=O)c1cnc(N[C@@H]2CCCC[C@@H]2N)nc1Nc1cccc(-n2nccn2)c1
activity change, negative = inhibition [2]: 6.8%
activity change, negative = inhibition [4]: -23.9%
activity change, negative = inhibition [5]: -12%

CN[C@H]1CCN(C(=O)c2ccc(Nc3ncc(F)c(-c4cnc(C)n4C(C)C)n3)cc2)C1
activity change, negative = inhibition [2]: 6.53%
activity change, negative = inhibition [4]: -16.8%
activity change, negative = inhibition [5]: 2.86%

Cc1ccc([C@H]2Nc3ccc(S(=O)(=O)Nc4ccc(C)c(Cl)c4)cc3[C@H]3C=CC[C@H]32)cc1
activity change, negative = inhibition [1]: -11.2%
activity change, negative = inhibition [2]: -5.09%
activity change, negative = inhibition [3]: -14.9%
activity change, negative = inhibition [4]: -15.5%
activity change, negative = inhibition [5]: -15.4%

C[C@]12C=C[C@@]3(CCC4[C@](C)(CO)CCC[C@@]4(C)C3CC1)C2 (some centres undefined)
activity change, negative = inhibition [1]: -2.21%
activity change, negative = inhibition [2]: -7.1%
activity change, negative = inhibition [3]: 3.74%
activity change, negative = inhibition [4]: -13.8%
activity change, negative = inhibition [5]: -14.2%

COc1cc(CN2CCN(c3ccc(C#N)cn3)CC2CCO)cc(OC)c1 (centres undefined)
activity change, negative = inhibition [1]: -7.32%
activity change, negative = inhibition [2]: -6.62%
activity change, negative = inhibition [3]: -3.12%
activity change, negative = inhibition [4]: -21.1%
activity change, negative = inhibition [5]: -3.93%

CCn1c(=O)n(CC)c2cc(S(=O)(=O)N3CCN(c4ccc(F)cc4)CC3)ccc21
activity change, negative = inhibition [1]: 2.29%
activity change, negative = inhibition [2]: 0%
activity change, negative = inhibition [3]: 1.43%
activity change, negative = inhibition [4]: -5.55%
activity change, negative = inhibition [5]: 3.25%

COc1ccc(NC(=O)Cn2nc3nc(Nc4ccc(F)cc4)ccn3c2=O)cc1Cl
activity change, negative = inhibition [1]: -7.27%
activity change, negative = inhibition [2]: 0%
activity change, negative = inhibition [3]: 0.697%
activity change, negative = inhibition [4]: -0.684%
activity change, negative = inhibition [5]: 1.59%

CC(C)(C)c1cc2n(n1)CC(C)(C(=O)NC1CCCCC1)N(Cc1ccc(F)cc1)C2=O (centres undefined)
activity change, negative = inhibition [1]: -8.19%
activity change, negative = inhibition [2]: -0.245%
activity change, negative = inhibition [3]: -1.57%
activity change, negative = inhibition [4]: -1.01%
activity change, negative = inhibition [5]: -2.08%

CC1CCC2C(C)(C)C(O)CCC2(C)C12Cc1c(O)cc3c(c1O2)CN(C(CCCN=C(N)N)C(=O)O)C3=O (centres undefined)
activity change, negative = inhibition [1]: -1.01%
activity change, negative = inhibition [2]: -2.92%
activity change, negative = inhibition [3]: 11.5%
activity change, negative = inhibition [4]: -11.4%
activity change, negative = inhibition [5]: -3.02%

CCCn1c(=O)c2ccc(C(=O)NC3CCCC3)cc2n2c(=O)n(CC(=O)NC(C)CC)nc12 (centres undefined)
activity change, negative = inhibition [1]: 2.02%
activity change, negative = inhibition [2]: 1.52%
activity change, negative = inhibition [3]: 4.37%
activity change, negative = inhibition [4]: -3.39%
activity change, negative = inhibition [5]: -1.97%

Cc1cccc(OCC(=O)c2ccc3c(c2)N(C(C)C(=O)N2CCOCC2)C(=O)CO3)c1C (centres undefined)
activity change, negative = inhibition [1]: -3.88%
activity change, negative = inhibition [2]: -3.51%
activity change, negative = inhibition [3]: -3.45%
activity change, negative = inhibition [4]: -7.54%
activity change, negative = inhibition [5]: -0.355%
